Data published in the supplement of paper PMC3334620.
Over roughly 33,000 sequences, “E-score (-0.5 to 0.5)” has its median near -0.054; the highest 2% begin near 0.39. Some of the results follow.

target: Ylr278c (UniProt Q05854); assay: PBM E-score (8-mer binding enrichment) (E-score (-0.5 to 0.5)); higher = stronger / more preferred TF binding; most listed sequences are background and not binding sites; settings: protein concentration: 200 nM; construct: GST-DNA-binding domain
Summary of the method: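 PURExpress in vitro transcription/translation supplied GST-tagged yeast transcription factors, either full-length or DNA-binding domain. Applied at about 100-200 nM to universal all-10-mer Agilent arrays double-stranded by primer extension, the bound protein was detected with fluorescent anti-GST. E-scores, modified Wilcoxon-Mann-Whitney statistics, were given by the Universal PBM Analysis Suite to ungapped eight-base words pooled with their reverse complements after masliner normalisation.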

Sequence	PBM E-score
CGTGTGGC	-0.151
CTCACACC	-0.0798
AATAAAGT	-0.0321
AGAGAATG	-0.179
TCTATCAA	-0.202
GCTATGCC	-0.025
CCCTGCTA	-0.13
GGCGATGA	0.0488
AGAGCTCT	-0.215
AGCCCGAG	0.0363
CGGCCAGC	0.159
ACCAGCAC	-0.215
CCAAGCCG	0.0631
CCTCGAAA	-0.102
AAGGAGTA	-0.0326
ATCGTCTA	-0.19
CGACGTGC	0.0957
CGAACTTA	0.0907
AATTGTCG	0.172
TATGGCCA	-0.0164
AGTCGACA	-0.135
CTTAACTC	0.00586
AAGGTATA	-0.161
ATCCGCGA	0.253
TAAGCGCA	-0.168

Sequence	PBM E-score
ACCAATGG	-0.00662
CACCCACC	0.0612
CCCCAGAA	0.00338
TAAGTTGA	-0.17
GGCATACA	-0.0374
CCCAGAGC	-0.243
ACAGTCAC	-0.241
ACTTCCCT	-0.0905
CAGGCGTA	-0.323
GAGTGCCC	0.0464
GGTTCACA	-0.105
CGTAGCAG	-0.0985
GGACTTCA	0.198
ACTTGGCA	-0.23
CGACGCAC	0.0113
GATGGACC	0.0223
AGCCTATG	-0.255
GTTCTCAA	-0.162
ACTACAAG	-0.0753
ACTTCGCG	0.196
GACATGAA	-0.033
CGCTTTCA	0.0276
CGCGCACG	0.196
CTACAAGA	-0.00619
CGTCTGTC	-0.00958

Sequence	PBM E-score
AATACTCG	-0.0284
CAGCTCCG	0.426
CTCTAACC	-0.0745
AACTATAA	0.00114
TAAGCCTA	-0.0455
CTTCTAAC	-0.156
AAGCGTGC	-0.0134
TCTTTGCA	-0.141
CATGTAGC	-0.182
CCGCAGAA	0.261
ATGACCCG	-0.0571
GCATACGA	-0.236
CGTTTTCC	0.0748
CTCAGGTC	-0.0518
GCCACCAC	-0.288
CTCAACCC	-0.0959
CACTTGCC	0.0403
CATGACCC	-0.075
ATTTATGG	-0.0865
CTGCCTAA	-0.235
GGAACAGA	0.096
CGATGTTA	-0.0237
CCTGTGCG	0.0174
CAACTTAA	-0.214
AGTAGAAA	0.0667

Sequence	PBM E-score
CACTTACC	0.119
CGGGGAAA	0.365
TGCCATAA	-0.0325
GAAGTAAC	0.0354
TACCCTAA	-0.157
GTGCAACA	-0.184
GTGTGATA	-0.0667
AGGTTTAT	0.157
AGGGTACC	-0.21
GCGACATA	-0.0837
AATTCACC	0.181
GATATCCC	0.288
AAGATGGC	0.0523
ATGATCGA	-0.193
ACGGATCC	0.275
CAATGTGC	-0.0161
GATATGCA	0.0751
GACGTTAC	-0.181
GTCTGGAA	-0.223
AAGGAGCG	-0.106
GCATAGTA	-0.036
AAGACGTG	0.0106
AGATTGAT	-0.0378
GCCGTCTA	0.0771
CATGTTGA	-0.0612

Sequence	PBM E-score
CCATGCTA	-0.227
ATCTGTCG	0.164
ATCCCTTA	-0.0352
TCTTCAAA	-0.152
CACACCTG	-0.196
ATAATGAG	-0.114
GCCTACCA	-0.123
AGGCACGG	0.104
CTCAGTTC	-0.288
AAACTGAT	-0.0999
AAGTCTTA	-0.159
GTAACAAC	-0.201
GGCGTGCA	0.014
GCTAACAA	-0.138
GTGCATGA	-0.211
ACCATAGA	0.00619
CGTCGATC	0.0378
CTCATCGC	-0.042
CTAACAAA	-0.211
TACACACA	-0.233
AACCAGTA	-0.0509
GAACCGCC	0.16
TCCCCGGA	0.435
CTAGTTTC	0.0814
CGTTCGCC	0.145

Sequence	PBM E-score
CAGGGGAA	-0.146
CGTAAGGC	-0.161
ACTTGTAG	-0.159
GACTTAGC	-0.0965
ACCTCGGC	0.332
ACAGTGCC	0.0507
TCCTCGAA	-0.115
GAAAATTC	0.191
ATCCGCAC	0.299
CACAATCA	0.0681
GGATACAC	0.103
AGACGCAT	-0.109
CCATAAAG	-0.171
ATCTTGCC	-0.0208
ACTGACTG	-0.255
TAATACTA	-0.0508
AACGGACA	0.321
CCTAATGC	-0.295
ACGGAGCC	0.385
AGGCGTAC	-0.209
CTGATAAC	-0.0994
ATCTAAAA	-0.135
AATTTTTC	0.113
CGCACTCC	0.215
ACCCGAAT	0.129

Sequence	PBM E-score
ATTATGCC	0.115
CAGACATG	-0.153
AGCTACCC	-0.243
CGACCGTC	-0.0706
ACAACCGA	0.0595
AATTCACT	-0.0951
AGCGCGCG	0.149
AAACCTCG	0.0262
ACAGTCCT	-0.337
ATCCTCAC	-0.0428
ATTGAAGA	-0.253
AGTGAGAA	0.0358
GCTCGCTA	-0.171
AGTACCAT	-0.154
ATAGGAGG	-0.0693
TGGAATAA	-0.0106
CGGTATCC	0.234
ACCACACT	-0.0239
TTACCCAA	-0.275
CTGAGGGC	-0.251
ATAAATAT	0.106
TAGTGCGA	-0.086
CCCTCGCG	0.112
TAGCTTGA	-0.14
GACGAAGA	0.0107

Sequence	PBM E-score
ATAATTGA	0.00187
CGTGTAAC	-0.086
ATCCCTCC	0.0691
TCGCACCA	-0.0357
GAGATTAC	0.112
CGCACGGA	0.324
CGGTCGCC	0.174
CTACACCC	-0.144
GCGGCCAC	0.0274
TATCCAGA	-0.101
CCGGGCCG	0.369
AACAGAAC	-0.155
CACCTTAC	-0.154
AGGCTCTG	-0.409
TAGAAGGA	-0.137
ACACATGA	-0.296
ATAGCGTG	-0.16
ATTGATTC	0.0803
AAATGGTG	-0.0138
TCAACTGA	-0.133
AGGATAGC	0.00534
ACCGTCTG	-0.0873
ATAGGTGC	0.00227
TCGTAGAA	-0.171
AGGCATAG	-0.15

Sequence	PBM E-score
CATTACAG	-0.191
CCCCGGCA	0.318
CGAGATAA	0.0471
CGCCATCA	-0.0985
GGGGTGTA	-0.09
CGGGTTAA	0.297
AGCACCTA	-0.0928
CATGACGG	0.0722
ACTGTATC	-0.13
AACGCACC	-0.0199
AAAAGGGG	-0.103
GGAAATAA	0.19
ATCTTCGC	0.0659
ATACAGTC	-0.18
ATGGAATG	0.00386
ACGGCAAC	0.00989
GATTATGC	0.149
GATATAAA	-0.176
AAGAACCT	-0.157
CCCGAGCG	0.292
CGTTGAGA	-0.133
ACAACTTG	-0.18
AGGCTTTC	-0.125
CCTAATGA	-0.2
ACTATTGG	-0.112

Sequence	PBM E-score
CTATGTCA	-0.183
ACACCACA	0.0174
ACCCTTGC	-0.118
GTAATTAA	-0.0118
GGTATCTA	-0.0263
CTAACGTA	-0.1
AGAGTGAC	-0.192
ACGCTCTC	0.0344
TCATATGA	0.0312
AAGCAGCC	-0.118
GGAAACGA	-0.0536
AATGCCAT	0.0253
AACCGGTT	0.284
TCCGCCGA	0.437
AGAATTAA	-0.114
CAGGTCAG	-0.0413
GCAGGTCA	-0.134
AACCGGGT	0.244
ACACAGAA	-0.0876
AGAGGGAA	-0.257
CCGCAACC	0.141
AATCGTTG	-0.0632
CGGCAGAG	-0.0128
AAGTCATG	-0.0146
CACTGAGA	-0.221

Sequence	PBM E-score
AAATGAGA	-0.187
ACACATTC	-0.0281
AAATAGGT	-0.221
GCGGACGA	0.319
ACCTGAAG	-0.0876
AGCGCGTA	-0.109
AGTAAACT	-0.099
ATCCCGAA	0.309
TAAATTGA	-0.138
AATGTTCT	-0.285
AGAGCATG	-0.29
TGCATACA	-0.078
CGGTACTA	0.219
GTAGTCTA	-0.227
CTACTAAG	0.0628
CAGGCTAA	-0.247
CGAAAACA	0.139
GTTACCTA	-0.229
AGATCCGA	0.344
CGAGAGCA	0.0376
ATTTCCGC	0.397
AATTTCCC	0.114
AGACCGGA	0.335
ATCCCCTA	-0.0766
AACCGGTC	0.198

Sequence	PBM E-score
CTTGAAAA	-0.0913
CGCGCCCG	0.269
ACGCTCAA	-0.0956
AGCACAAG	-0.0575
CGCAAATC	0.133
AAGCCTGT	-0.105
CGACTGTC	-0.192
CGCCGCAC	0.222
CTGCCACA	-0.191
CTCTAAAC	-0.125
GCGAGCAA	0.0132
GGATGATA	0.00526
AACTCTAA	0.0999
CTGGCCAG	-0.218
CGTTGAAA	-0.0818
ACGAGATG	-0.13
ATGCGATG	-0.0186
GCGTAAAA	0.0422
GCTCTCTA	-0.266
TCACCAAA	-0.106
CTTTTAGC	-0.199
CATTAGCC	0.0103
AGCCGACC	0.0564
CCACTGAA	0.0461
CACCCACA	-0.116

Sequence	PBM E-score
CCACGGGA	0.0757
GATTATCC	0.212
AGGTACAC	-0.0394
TAGACCCA	-0.168
AGGAAGGG	-0.226
CTCTAGCA	-0.23
AATCTTGG	-0.158
CGGCCGTA	0.225
ACTGTAGC	-0.231
AAAAAAAA	0.0783
CCGCCAGG	0.102
CAGTGAGC	-0.153
TCCTCCCA	0.0879
AGGGGTTG	-0.164
ATGGTACA	-0.169
TGCGACAA	-0.119
GAAGAAGC	0.117
ACCCGAAC	0.197
CGCCCCCA	-0.186
GCTACTAA	-0.0294
ATAGCATA	-0.122
GCCGGGGA	0.338
GGAGCCAA	0.0617
AACGCGGA	0.397
ATTAGGGG	-0.0907

Sequence	PBM E-score
AAGCCACT	-0.228
ACCCCTCC	-0.101
ACGAGACT	-0.187
CTAGCAAA	-0.00039
AAGGAGAT	0.0883
ACCCTACA	-0.192
CCGCAGGC	0.203
CATTCGAC	-0.0234
AAGCAGAA	-0.0239
AATTGGGC	-0.116
CCTAGTGC	-0.173
AGACAGTA	-0.228
AGGGGTAG	-0.0381
GATTTTCA	0.0485
GAAAGCTA	0.0324
AACGTCTG	-0.123
AATATCAT	-0.105
ACTCAACT	0.0546
TCCACAAA	0.07
